From US11207320B2, “Compositions and methods for cancer expressing PDE3A or SLFN12” (The Broad Institute, Inc., priority 2015, dated 2021)
This continues a long series; more values of the same kind are listed elsewhere.

Tested on: 766 cancer cell lines
Assay: Large-scale cell-line viability measurements (766 cancer cell lines, 72 h, AUC)
Format: cell-based, human
Description: Cell lines were treated for 72 hours with concentrations ranging from 66.4 μM-2 nM in 2-fold step dilutions.
To characterize cellular sensitivity to DNMDP further, 766 genomically characterized cancer cell lines were screened for DMNDP sensitivity at concentrations ranging from 66.4 μM to 2 nM in 2-fold dilution steps for 72 hours. From these cell lines, 22 cell lines were categorized as sensitive with a robust Z-score lower than −4, which represented multiple lineages including multiple melanoma cell lines, amongst others (Table 1).
The sensitivity of […] cancer cell lines (CCLs) was measured drawn from 23 different lineages to DNMDP. Each cell line was plated in its preferred media in white opaque 1536-plates at a density of 500 cells/well. After incubating overnight, DNMDP was added by acoustic transfer at 16 concentrations ranging from 66.4 μM-2 nM in 2-fold steps in duplicate (Labcyte Echo 555, Labcyte Inc., Sunnyvale, Calif.). After 72 hours treatment, cellular ATP levels were measured as a surrogate for viability (CELLTITERGLO®, Promega Corporation, Madison, Wis.) according to manufacturer's protocols using a ViewLux Microplate Imager (PerkinElmer, Waltham, Mass.) and normalized to background (media-only) and vehicle (DMSO)-treated control wells.
Concentration response curves were fit using nonlinear fits to 2- or 3-parameter sigmoid functions through all 16 concentrations with the low-concentration asymptote set to the DMSO-normalized value, and an optimal 8-point dose curve spanning the range of compound-sensitivity was identified. The area under the 8-point dose curve (AUC) was computed by numeric integration as a metric for sensitivity for further analysis. Similar sensitivity measurements have been obtained for a collection of 480 other compounds, enabling analyses that identify cell lines responding uniquely to DNMDP (see Broad Institute Cancer Therapeutics Response Portal, a dataset to identify comprehensively relationships between genetic and lineage features of human cancer cell lines and small-molecule sensitivities for complete list of compounds).

[1] = cell line NCIH508, LARGE INTESTINE, 72 hours
[2] = cell line NCIH716 (LARGE INTESTINE)
[3] = cell line NCIH747 (LARGE INTESTINE)
[4] = cell line NCIH889, LUNG, 72 hours
[5] = cell line NCIH929 (HAEMATOPOIETIC AND LYMPHOID TISSUE)
[6] = cell line NCIH1092, LUNG, 72 hours
[7] = cell line NCIH2171, LUNG, 72 hours
[8] = cell line NCIH2196, LUNG, 72 hours
[9] = cell line NCIH2444, LUNG, 72 hours
[10] = cell line NMCG1, CENTRAL NERVOUS SYSTEM, 72 hours
[11] = cell line NUDHL1, HAEMATOPOIETIC AND LYMPHOID TISSUE, 72 hours

Structure (SMILES): CCN(CC)c1ccc(C2=NNC(=O)CC2C)cc1[N+](=O)[O-] (stereo not drawn) [DNMDP, 6-(4-(diethylamino)-3-nitrophenyl)-5-methyl-4,5-dihydropyridazin-3(2H)-one]
- Robust Z-score (cell line NCIH460 (LUNG)): 0.1786
- DNMDP AUC [1]: 7.2176
- Robust Z-score [1]: 0.6119
- DNMDP AUC (cell line NCIH526 (LUNG)): 7.0825
- Robust Z-score (cell line NCIH526 (LUNG)): 0.4701
- DNMDP AUC (cell line NCIH596 (LUNG)): 6.7123
- Robust Z-score (cell line NCIH596 (LUNG)): 0.08151
- DNMDP AUC (cell line NCIH650 (LUNG)): 6.7194
- Robust Z-score (cell line NCIH650 (LUNG)): 0.08896
- DNMDP AUC (cell line NCIH661 (LUNG)): 7.0832
- Robust Z-score (cell line NCIH661 (LUNG)): 0.4708
- DNMDP AUC [2]: 6.5964
- Robust Z-score [2]: −0.04015
- DNMDP AUC (cell line NCIH727 (LUNG)): 6.6253
- Robust Z-score (cell line NCIH727 (LUNG)): −0.009814
- DNMDP AUC [3]: 6.8075
- Robust Z-score [3]: 0.1814
- DNMDP AUC (cell line NCIH810 (LUNG)): 6.9222
- Robust Z-score (cell line NCIH810 (LUNG)): 0.3018
- DNMDP AUC (cell line NCIH838 (LUNG)): 6.6448
- Robust Z-score (cell line NCIH838 (LUNG)): 0.01065
- DNMDP AUC (cell line NCIH841 (LUNG)): 6.7036
- Robust Z-score (cell line NCIH841 (LUNG)): 0.07237
- DNMDP AUC [4]: 7.4952
- Robust Z-score [4]: 0.9033
- DNMDP AUC [5]: 6.5755
- Robust Z-score [5]: −0.06209
- DNMDP AUC [6]: 7.139
- Robust Z-score [6]: 0.5294
- DNMDP AUC (cell line NCIH1299 (LUNG)): 6.9991
- Robust Z-score (cell line NCIH1299 (LUNG)): 0.3825
- DNMDP AUC (cell line NCIH1341 (LUNG)): 6.7337
- Robust Z-score (cell line NCIH1341 (LUNG)): 0.104
- DNMDP AUC (cell line NCIH1373 (LUNG)): 7.0318
- Robust Z-score (cell line NCIH1373 (LUNG)): 0.4169
- DNMDP AUC (cell line NCIH1623 (LUNG)): 6.862
- Robust Z-score (cell line NCIH1623 (LUNG)): 0.2386
- DNMDP AUC (cell line NCIH1650 (LUNG)): 6.825
- Robust Z-score (cell line NCIH1650 (LUNG)): 0.1998
- DNMDP AUC (cell line NCIH1694 (LUNG)): 6.7095
- Robust Z-score (cell line NCIH1694 (LUNG)): 0.07857
- DNMDP AUC (cell line NCIH1755 (LUNG)): 6.771
- Robust Z-score (cell line NCIH1755 (LUNG)): 0.1431
- DNMDP AUC (cell line NCIH1781 (LUNG)): 6.6169
- Robust Z-score (cell line NCIH1781 (LUNG)): −0.01863
- DNMDP AUC (cell line NCIH1792 (LUNG)): 7.0701
- Robust Z-score (cell line NCIH1792 (LUNG)): 0.4571
- DNMDP AUC (cell line NCIH1838 (LUNG)): 6.8375
- Robust Z-score (cell line NCIH1838 (LUNG)): 0.2129
- DNMDP AUC (cell line NCIH2023 (LUNG)): 6.6954
- Robust Z-score (cell line NCIH2023 (LUNG)): 0.06377
- DNMDP AUC (cell line NCIH2029 (LUNG)): 6.6826
- Robust Z-score (cell line NCIH2029 (LUNG)): 0.05033
- DNMDP AUC (cell line NCIH2030 (LUNG)): 6.5688
- Robust Z-score (cell line NCIH2030 (LUNG)): −0.06912
- DNMDP AUC (cell line NCIH2052 (PLEURA)): 6.8321
- Robust Z-score (cell line NCIH2052 (PLEURA)): 0.2073
- DNMDP AUC (cell line NCIH2085 (LUNG)): 6.8317
- Robust Z-score (cell line NCIH2085 (LUNG)): 0.2068
- DNMDP AUC (cell line NCIH2087 (LUNG)): 6.6806
- Robust Z-score (cell line NCIH2087 (LUNG)): 0.04823
- DNMDP AUC (cell line NCIH2126 (LUNG)): 6.9473
- Robust Z-score (cell line NCIH2126 (LUNG)): 0.3282
- DNMDP AUC (cell line NCIH2170 (LUNG)): 6.6424
- Robust Z-score (cell line NCIH2170 (LUNG)): 0.008135
- DNMDP AUC [7]: 7.3416
- Robust Z-score [7]: 0.742
- DNMDP AUC [8]: 7.7386
- Robust Z-score [8]: 1.159
- DNMDP AUC (cell line NCIH2291 (LUNG)): 7.0654
- Robust Z-score (cell line NCIH2291 (LUNG)): 0.4521
- DNMDP AUC (cell line NCIH2342 (LUNG)): 6.6346
- Robust Z-score (cell line NCIH2342 (LUNG)): −5.248E−05
- DNMDP AUC (cell line NCIH2405 (LUNG)): 6.7785
- Robust Z-score (cell line NCIH2405 (LUNG)): 0.151
- DNMDP AUC [9]: 7.2606
- Robust Z-score [9]: 0.657
- DNMDP AUC (cell line NCIH2452 (PLEURA)): 6.9169
- Robust Z-score (cell line NCIH2452 (PLEURA)): 0.2963
- DNMDP AUC [10]: 7.1746
- Robust Z-score [10]: 0.5668
- DNMDP AUC [11]: 7.2677
- Robust Z-score [11]: 0.6645
- DNMDP AUC (cell line NUGC3 (STOMACH)): 6.9527
